The antibiotic and cytotoxicity screens of Wong et al. (2023)
Some of the results follow.

What was measured:
HSkMC = human skeletal muscle cells; test: cytotoxicity call (relative viability < 0.9); conditions: 10 µM
HepG2 = test: cytotoxicity call (relative viability < 0.9); conditions: 10 µM
S. aureus RN4220 = test: growth inhibition call (relative growth <= 0.2); conditions: 50 µM

C[C@@H]1CN([C@@H](C)CO)C(=O)c2ccccc2-c2ccccc2CO[C@@H]1CN(C)Cc1ccc(Cl)c(Cl)c1
cytotoxicity call (HSkMC): inactive
cytotoxicity call (HepG2): inactive
growth inhibition call (S. aureus RN4220): inactive

C[C@@H]1CN([C@@H](C)CO)C(=O)Cc2cc(NC(=O)Nc3cccc4ccccc34)ccc2O[C@H]1CN(C)C(=O)Nc1ccccc1
cytotoxicity call (HSkMC): inactive
cytotoxicity call (HepG2): inactive
growth inhibition call (S. aureus RN4220): inactive

COCC#Cc1ccc2c(c1)O[C@H](CN(C)S(=O)(=O)c1ccc(F)cc1)[C@@H](C)CN([C@@H](C)CO)S2(=O)=O
cytotoxicity call (HSkMC): inactive
cytotoxicity call (HepG2): inactive
growth inhibition call (S. aureus RN4220): inactive

C[C@@H]1CN([C@H](C)CO)C(=O)c2ccccc2-c2ccccc2CO[C@@H]1CN(C)Cc1ccc(Cl)c(Cl)c1
cytotoxicity call (HSkMC): inactive
cytotoxicity call (HepG2): inactive
growth inhibition call (S. aureus RN4220): inactive

C[C@@H]1CCCCO[C@H](CN(C)C(=O)Nc2cccc3ccccc23)[C@H](C)CN([C@@H](C)CO)C(=O)c2cc(NC(=O)Nc3ccc(F)cc3)ccc2O1
cytotoxicity call (HSkMC): inactive
cytotoxicity call (HepG2): inactive
growth inhibition call (S. aureus RN4220): inactive

C[C@@H]1CN([C@H](C)CO)C(=O)c2cc(NC(=O)NC3CCCCC3)ccc2O[C@@H](C)CCCCO[C@@H]1CN(C)C(=O)Nc1ccccc1
cytotoxicity call (HSkMC): inactive
cytotoxicity call (HepG2): inactive
growth inhibition call (S. aureus RN4220): inactive

C[C@@H]1CCCCO[C@@H](CN(C)S(=O)(=O)c2ccccc2)[C@H](C)CN([C@H](C)CO)C(=O)c2cc(NC(=O)C3CCCCC3)ccc2O1
cytotoxicity call (HSkMC): inactive
cytotoxicity call (HepG2): inactive
growth inhibition call (S. aureus RN4220): inactive

CNC[C@@H]1OCCCC[C@@H](C)Oc2ccc(NC(=O)Nc3ccc(C(F)(F)F)cc3)cc2C(=O)N([C@@H](C)CO)C[C@@H]1C
cytotoxicity call (HSkMC): inactive
cytotoxicity call (HepG2): inactive
growth inhibition call (S. aureus RN4220): inactive

COc1ccc(NC(=O)Nc2cccc3c2O[C@@H](CN(C)Cc2ccc(-c4ccccc4)cc2)[C@@H](C)CN([C@H](C)CO)C3=O)cc1
cytotoxicity call (HSkMC): inactive
cytotoxicity call (HepG2): inactive
growth inhibition call (S. aureus RN4220): inactive

CCC=CCC1=C(C)CCC1=O
cytotoxicity call (HSkMC): inactive
cytotoxicity call (HepG2): inactive
growth inhibition call (S. aureus RN4220): inactive

COc1ccc(S(=O)(=O)N(C)C[C@H]2OCCCC[C@H](C)Oc3ccc(NS(C)(=O)=O)cc3C(=O)N([C@H](C)CO)C[C@H]2C)cc1
cytotoxicity call (HSkMC): inactive
cytotoxicity call (HepG2): inactive
growth inhibition call (S. aureus RN4220): inactive

COc1ccc(S(=O)(=O)N(C)C[C@@H]2OCCCC[C@@H](C)Oc3ccc(NS(C)(=O)=O)cc3C(=O)N([C@H](C)CO)C[C@@H]2C)cc1
cytotoxicity call (HSkMC): inactive
cytotoxicity call (HepG2): inactive
growth inhibition call (S. aureus RN4220): inactive

COc1ccc(CN(C)C[C@@H]2Oc3ccc(NC(=O)C4CC4)cc3CC(=O)N([C@H](C)CO)C[C@H]2C)cc1
cytotoxicity call (HSkMC): inactive
cytotoxicity call (HepG2): inactive
growth inhibition call (S. aureus RN4220): inactive

C[C@H]1CN([C@@H](C)CO)C(=O)Cc2cc(NC(=O)Nc3ccc4c(c3)OCO4)ccc2O[C@H]1CN(C)C(=O)Nc1ccc(C(F)(F)F)cc1
cytotoxicity call (HSkMC): inactive
cytotoxicity call (HepG2): active
growth inhibition call (S. aureus RN4220): inactive

COc1ccc(NC(=O)Nc2ccc3c(c2)C(=O)N([C@H](C)CO)C[C@@H](C)[C@@H](CN(C)Cc2ccncc2)OCCCC[C@H](C)O3)cc1
cytotoxicity call (HSkMC): inactive
cytotoxicity call (HepG2): inactive
growth inhibition call (S. aureus RN4220): inactive

C[C@@H]1CCCCO[C@H](CN(C)Cc2ccc(C(F)(F)F)cc2)[C@@H](C)CN([C@H](C)CO)C(=O)c2cc(NC(=O)CCC(F)(F)F)ccc2O1
cytotoxicity call (HSkMC): inactive
cytotoxicity call (HepG2): inactive
growth inhibition call (S. aureus RN4220): inactive

C[C@@H]1CN([C@@H](C)CO)C(=O)c2cc(NS(=O)(=O)c3cccs3)ccc2O[C@H]1CN(C)S(=O)(=O)c1cn(C)cn1
cytotoxicity call (HSkMC): inactive
cytotoxicity call (HepG2): inactive
growth inhibition call (S. aureus RN4220): inactive

Cc1noc(C)c1NC(=O)Nc1ccc2c(c1)C(=O)N([C@H](C)CO)C[C@@H](C)[C@@H](CN(C)C(=O)C1CCCCC1)OCCCC[C@@H](C)O2
cytotoxicity call (HSkMC): inactive
cytotoxicity call (HepG2): inactive
growth inhibition call (S. aureus RN4220): inactive

C[C@H]1CCCCO[C@@H](CN(C)C(=O)Nc2ccc(C(F)(F)F)cc2)[C@@H](C)CN([C@@H](C)CO)C(=O)c2cc(N(C)C)ccc2O1
cytotoxicity call (HSkMC): inactive
cytotoxicity call (HepG2): inactive
growth inhibition call (S. aureus RN4220): inactive

CCCNC(=O)N1C[C@]2(CCN(CC2)C(=O)Cc2cccnc2)c2c([nH]c3cc(ccc23)OC)[C@H]1CO
cytotoxicity call (HSkMC): inactive
cytotoxicity call (HepG2): inactive
growth inhibition call (S. aureus RN4220): inactive

Cc1noc(C)c1S(=O)(=O)N(C)C[C@H]1Oc2ccc(NS(=O)(=O)c3cn(C)cn3)cc2CC(=O)N([C@H](C)CO)C[C@@H]1C
cytotoxicity call (HSkMC): inactive
cytotoxicity call (HepG2): inactive
growth inhibition call (S. aureus RN4220): inactive

Cc1noc(C)c1NC(=O)Nc1ccc2c(c1)C(=O)N([C@@H](C)CO)C[C@@H](C)[C@H](CN(C)C(=O)Nc1cccc3ccccc13)OCCCC[C@H](C)O2
cytotoxicity call (HSkMC): inactive
cytotoxicity call (HepG2): inactive
growth inhibition call (S. aureus RN4220): inactive

COc1ccc(NC(=O)N(C)C[C@H]2OCCCC[C@@H](C)Oc3ccc(NC(=O)c4ccncc4)cc3C(=O)N([C@H](C)CO)C[C@H]2C)cc1
cytotoxicity call (HSkMC): inactive
cytotoxicity call (HepG2): inactive
growth inhibition call (S. aureus RN4220): inactive
